Our source for the inhibition of HGF induced BRET signal, c-Met dimerization model and inhibition of HGF induced BRET signal, c-Met activation model values is patent WO2010064089A1.

Numbering of substitutions follows the chain as printed.

B1: [224G11][TH7 Hz1] (antibody)
heavy: QVQLVQSGAEVKKPGASVKVSCKASGYIFTAYTMHWVRQAPGQGLEWMGWIKPNNGLANYAQKFQGRVTMTRDTSISTAYMELSRLRSDDTAVYYCARSEITTEFDYWGQGTLVTVSSASTKGPSVFPLAPSSKSTSGGTAALGCLVKDFPEPVTVSWNSGALTSGVHTFPAVLQSSGLYSLSSVVTVPSSSLGTQTYICNVNHKPSNTKVDKRVEPKSCDCH[human IgG1 Fc not listed]
light: DIVLTQSPDSLAVSLGERATINCKSSESVDSYANSFMHWYQQKPGQPPKLLIYRASTRESGVPDRFSGSGSRTDFTLTISSLQAEDVAVYYCQQSKEDPLTFGGGTKVEIKRTVAAPSVFIFPPSDEQLKSGTASVVCLLNNFYPREAKVQWKVDNALQSGNSQESVTEQDSKDSTYSLSSTLTLSKADYEKHKVYACEVTHQGLSSPVTKSFNRGEC
B2: [224G11][TH7 Hz2] (antibody)
heavy: B1 heavy
light: B1 light with L4M, R72G
B3: [224G11][TH7 Hz3] (antibody)
heavy: B1 heavy
light: B1 light with L4M, M37L, R72G

One assay addresses C-Met-Rluc and C-Met-K1100A-YFP co-expressed in a CHO stable cell line (c-Met dimerization BRET model) (R. reniformis), P08581. The assay can be described thus: cell-based or functional assay.
In turn, B1 had an inhibition of HGF induced BRET signal, c-Met dimerization model of 52.2%.
In turn, B2 yielded an inhibition of HGF induced BRET signal, c-Met dimerization model of 35.8%.
B3 had an inhibition of HGF induced BRET signal, c-Met dimerization model of 49.4%.

For the next assay, the target named is C-Met-Rluc expressed with a mutated form of Gab1 fused to YFP in a CHO stable cell line (c-Met activation BRET model) (R. reniformis), P08581. Briefly: cell-based or functional assay.
Turning to B1, the inhibition of HGF induced BRET signal, c-Met activation model was found to be 59.9%.
On the same count and under the same terms, next, B2: 41.8%; B3: 57.9%.
